# Measured values reported in PubChem BioAssay AID504332 (National Center for Advancing Translational Sciences (NCATS), 2011).
# Where “and” joins values, the source holds several entries; their conditions need not be identical. Equal entries are not always repeated. In all, about 350,000 compounds went through this assay and about 31,000 (8.9%) were called active. The inconclusive results got no clear call from the source; some entries with a clear call stand among them for comparison. Calls come from the whole dose curve; as a rule, active = well fitted inhibition curve with a large enough effect; inconclusive = small, poorly fitted or top-dose-only effect; inactive = no such curve, though single readings can be large or run the other way. Potencies beside an inconclusive call are fits to weak or partial responses and may not hold up.
# Target: Histone-lysine N-methyltransferase EHMT2 (Homo sapiens) (UniProt Q96KQ7)
# Test: qHTS Assay for Inhibitors of Histone Lysine Methyltransferase G9a; note: nearly all actives have a fitted effect of over 75% in size
# Settings: G9a H3K9 monomethylation, AlphaScreen, 2 h; activity, negative = inhibition: at 59 µM (top of the series) unless noted
# Method in brief: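 Readings reflect AlphaScreen signal from monomethyl-H3K9 antibody detection. HMT at 20 nM; substrate b-H3K9 500 nM; cofactor SAM 20 uM; 2 h RT reaction; compounds tested as titrations in qHTS with 15 min preincubation.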
# % is set by controls: 0 for no effect and ±100 for the full control effect; potency is the fitted concentration of half-maximal effect; tags give direction and shape of the fitted curve.
# Sequence of UniProt Q96KQ7 (Q96KQ7 whole entry, looked up): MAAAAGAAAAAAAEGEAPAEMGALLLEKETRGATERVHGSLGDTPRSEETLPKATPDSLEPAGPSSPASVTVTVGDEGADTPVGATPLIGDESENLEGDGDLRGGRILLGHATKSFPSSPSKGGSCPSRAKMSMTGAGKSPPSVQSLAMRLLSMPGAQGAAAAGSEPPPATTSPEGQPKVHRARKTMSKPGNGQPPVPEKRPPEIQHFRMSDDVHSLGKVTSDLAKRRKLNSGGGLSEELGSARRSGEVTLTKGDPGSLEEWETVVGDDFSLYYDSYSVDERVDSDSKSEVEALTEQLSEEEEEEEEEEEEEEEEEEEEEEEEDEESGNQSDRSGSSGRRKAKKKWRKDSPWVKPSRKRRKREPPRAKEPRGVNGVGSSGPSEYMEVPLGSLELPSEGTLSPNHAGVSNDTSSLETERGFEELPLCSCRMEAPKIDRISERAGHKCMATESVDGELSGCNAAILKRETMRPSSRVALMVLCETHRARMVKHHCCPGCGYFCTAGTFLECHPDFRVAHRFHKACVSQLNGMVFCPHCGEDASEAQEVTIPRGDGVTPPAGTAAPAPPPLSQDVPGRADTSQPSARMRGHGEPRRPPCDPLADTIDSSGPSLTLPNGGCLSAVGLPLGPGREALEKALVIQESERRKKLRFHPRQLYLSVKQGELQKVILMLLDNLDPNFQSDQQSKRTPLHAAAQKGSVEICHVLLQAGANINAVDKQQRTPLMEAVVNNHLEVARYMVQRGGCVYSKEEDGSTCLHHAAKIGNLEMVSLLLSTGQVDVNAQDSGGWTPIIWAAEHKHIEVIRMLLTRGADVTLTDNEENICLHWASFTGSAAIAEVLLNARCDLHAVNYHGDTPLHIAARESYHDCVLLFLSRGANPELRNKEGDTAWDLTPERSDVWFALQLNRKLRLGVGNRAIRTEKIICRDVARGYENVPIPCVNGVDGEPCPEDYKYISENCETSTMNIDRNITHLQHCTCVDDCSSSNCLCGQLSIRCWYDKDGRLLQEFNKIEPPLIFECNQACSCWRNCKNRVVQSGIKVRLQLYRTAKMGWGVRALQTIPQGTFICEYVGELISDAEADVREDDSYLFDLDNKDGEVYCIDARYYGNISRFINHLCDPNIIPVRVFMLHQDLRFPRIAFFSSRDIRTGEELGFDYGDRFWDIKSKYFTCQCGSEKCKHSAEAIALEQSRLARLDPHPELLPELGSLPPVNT
SMILES,Potency,"activity, negative = inhibition"
CCc1noc(C)c1C(=O)Nc1nc2ccc(S(C)(=O)=O)cc2s1,active: 50.1 µM,
O=C(NCCNC(=O)c1cccs1)c1ccco1,"inconclusive: 89.1 µM [inhibitor, partial curve, poor fit]",
COc1ccc2c(Sc3ccc(C)cc3)c(C(=O)NC(C)C)[nH]c2c1,"inconclusive: 31.6 µM [inhibitor, single point]",
CCOc1ccccc1NC(=O)CSc1nccn1-c1cccc(C)c1,"inconclusive: 12.6 µM [inhibitor, partial curve]",
COc1cccc(-c2ccc(C#N)c(SCC(=O)NCc3ccco3)n2)c1,"inconclusive: 70.8 µM [inhibitor, partial curve, poor fit]",
Cc1cc(-c2n[nH]c(=S)n2/N=C/c2ccc(C)o2)n[nH]1,active: 7.94 µM,
Cc1cc(NC(=O)CSc2nnc3c(C)cc4cc5c(cc4n23)OCO5)no1,active: 35.5 µM,
O=C(CN1CCOCC1)NNc1nc(-c2ccccc2)c2cc(Br)ccc2n1,,inactive: 13.3%
Cc1ccc(NC(=O)CC2Nc3ccccc3NC2=O)cc1C (stereo not drawn),"inconclusive: 28.2 µM [inhibitor, partial curve, poor fit]",
CC1C2(C)OC(=N)C(C#N)(C(C)O2)C1(C#N)C#N (stereo not drawn),active: 70.8 µM,
O=C(CN1C(=O)CSc2ccc(S(=O)(=O)N3CCCC3)cc21)Nc1cccc(Cl)c1,,inactive: -32.3%
O=C(NCCc1ccc(Cl)cc1)c1cc(S(=O)(=O)N2CCCCC2)c[nH]1,"inconclusive: 89.1 µM [inhibitor, single point]",
O=C1CC(c2cccc(Br)c2)C2=C(COC2=O)N1 (stereo not drawn),"inconclusive: 0.447 µM [inhibitor, full curve]",
COC(=O)c1cc2c(ccn2-c2ccc(F)cc2)n1CC(=O)N1CCN(C(=O)c2ccco2)CC1,"inconclusive: 1.26 µM [inhibitor, partial curve, poor fit]",
O=C(O)c1ncc(Cl)c(Cl)c1Cl,active: 28.2 µM and active: 50.1 µM,
Cc1ccc(NC(=O)C(=O)C2C(=O)Nc3ccccc32)cc1 (stereo not drawn),"inconclusive: 35.5 µM [inhibitor, partial curve, poor fit]",
COc1cc(C2CC(=O)Oc3c(C(CCN4CCN(c5ccccc5)CC4)c4ccc(N(C)C)cc4)c(OC)cc(OC)c32)cc(OC)c1OC (stereo not drawn),"inconclusive: 3.16 µM [inhibitor, single point]",
CCOc1ccccc1N1CCN(C(=O)c2ccccc2SCC(=O)N2CCCC2)CC1,"inconclusive: 89.1 µM [inhibitor, single point]",
CCN(CC)S(=O)(=O)c1ccc(N=NC2=C(O)CC(C)(C)CC2=O)cc1,"inconclusive: 39.8 µM [inhibitor, single point]",
Nc1cc(-c2ccc(Br)cc2)[nH]n1,"inconclusive: 89.1 µM [inhibitor, single point]",
O=C(O)C1C2C=CC(CC2)C1C(=O)O (stereo not drawn),active: 44.7 µM,
COC(=O)C1=C(C)N(CCc2ccc(OC)c(OC)c2)C(=O)C1,"inconclusive: 35.5 µM [inhibitor, single point]",
CCn1c(=S)sc2c(=O)n(CC(=O)Nc3ccccc3C(F)(F)F)c(C)nc21,,inconclusive: -106% [inhibitor]

SMILES,Potency,"activity, negative = inhibition"
CCCCN(C(=O)C1CCCC1)c1c(N)n(CC(C)C)c(=O)[nH]c1=O,,inactive: 3.11% [at 12.7 µM]
COc1ccc(Cl)cc1NC(=O)c1c(NCc2cccnc2)sc2c1CCC(C)C2 (stereo not drawn),"inconclusive: 0.316 µM [inhibitor, full curve, poor fit]",
CCOc1ccccc1NC(=O)Nc1cc(OC)ccc1OC,"inconclusive: 28.2 µM [inhibitor, partial curve, poor fit]",
Cc1cc(OC(C)C(=O)NC(Cc2c[nH]c3ccc(O)cc23)C(=O)O)c2c(C)cc(=O)oc2c1 (stereo not drawn),"inconclusive: 89.1 µM [inhibitor, single point]",
CC(=O)Nc1ccc(NC(=O)C(C)OC(=O)c2cc(S(=O)(=O)N3CCOCC3)ccc2Cl)cc1 (stereo not drawn),"inconclusive: 63.1 µM [inhibitor, partial curve, poor fit]",
c1ccc2c(c1)CCN(c1nc3cc4c(cc3s1)OCCO4)C2,"inconclusive: 50.1 µM [inhibitor, partial curve, poor fit]",
COc1ccc(NC(=O)/C=C/c2ccc(Br)o2)cn1,"inconclusive: 50.1 µM [inhibitor, single point]",
Cc1ccc(N(CCC(=O)N2CCOCC2)S(=O)(=O)c2ccccc2)cc1,active: 0.708 µM,
CN(C)C(CNC(=O)CCc1nc2cc(Cl)ccc2n(Cc2ccccc2)c1=O)c1ccccc1 (stereo not drawn),"inconclusive: 50.1 µM [inhibitor, partial curve]",
Clc1ccc(OCCCCCN2CCCC2)c(Br)c1,"inconclusive: 25.1 µM [inhibitor, partial curve, poor fit]",
CC(=O)c1cccc(NC(=S)NC(=O)c2ccccc2Cl)c1,"inconclusive: 25.1 µM [inhibitor, single point]",
CCN1CCN(C(c2ccc(SC)cc2)c2c(O)cc(C)n(CCOC)c2=O)CC1 (stereo not drawn),"inconclusive: 39.8 µM [inhibitor, single point]",
CCCCNCCCOc1ccc(C)cc1Br,active: 50.1 µM,
COc1ccc(-c2nc3n(n2)C(c2ccc(OC)c(OC)c2)C(C(=O)Nc2cccnc2)=C(C)N3)cc1 (stereo not drawn),,inactive: 1.75%
COCCCNC(=O)c1ccc(Cn2c(=O)c3ccccc3n(Cc3c(C)cc(C)cc3C)c2=O)cc1,,inactive: 4.34%
COc1cccc(N=Nc2ccc(O)c3ncccc23)c1,active: 10 µM,
S=c1[nH]nc(NCCCN2CCOCC2)s1,active: 1.26 µM,
Cc1cc(C)c(NC(=O)CNC(=O)c2cc([N+](=O)[O-])ccc2N2CCOCC2)c(C)c1,"inconclusive: 79.4 µM [inhibitor, partial curve, poor fit]",
Cc1ccc(Cn2ccc(NC(=O)c3c(-c4ccccc4Cl)noc3C)n2)cc1,,inactive: -28.4%
COc1cc(C(=O)NCC(c2ccc(Cl)cc2)N2CCOCC2)cc(OC)c1OC (stereo not drawn),,inactive: 10.8%
C/C(=C\c1ccco1)C1Nc2cccc3cccc(c23)N1,"inconclusive: 11.2 µM [inhibitor, full curve, poor fit]",
CCOC(=O)c1ccc(CN(Cc2ccc(Br)cc2)S(=O)(=O)c2cccc(Cl)c2C)cc1,,inactive: 26.7%
COc1ccc(N2CC(C(=O)Nc3ccc(S(=O)(=O)N4CCCC4)cc3)CC2=O)cc1 (stereo not drawn),,inactive: -7.05% [at 102 µM]

SMILES,Potency,"activity, negative = inhibition"
Cc1nc(C)c(-c2csc(Nc3ccccn3)n2)s1,"inconclusive: 56.2 µM [inhibitor, single point]",
CCOC(=O)Nc1nc(-c2ccccc2)c(C(=O)c2ccccc2)s1,,inactive: 0.455% [at 102 µM]
CCCCCCCCCCOC(=O)Cn1c(COc2ccc(OC)cc2)[n+](C)c2ccccc21,"inconclusive: 79.4 µM [inhibitor, single point] and inconclusive: 89.1 µM [inhibitor, single point]",
C/C(=N\N=C(/N)SC1CC(=O)N(c2ccc(Br)cc2)C1=O)c1cccs1 (stereo not drawn),"inconclusive: 31.6 µM [inhibitor, partial curve, poor fit]",
O=C(Nc1cc(Cl)ccc1N1CCOCC1)c1ccc(F)c(S(=O)(=O)N2CCOCC2)c1,"inconclusive: 8.91 µM [inhibitor, single point]",
CC1CCN(C(=O)CSc2nnc(Cc3cccn3C)n2-c2ccc(F)cc2)CC1,"inconclusive: 35.5 µM [inhibitor, single point]",
Cc1ccc(N2CCN(C(=O)c3cn(C)c4ccc(S(=O)(=O)N(C)C)cc4c3=O)CC2C)cc1 (stereo not drawn),"inconclusive: 35.5 µM [inhibitor, partial curve, poor fit]",
CCCOc1ccc(N2C(=O)CC(N3CCN(c4nc5ccccc5s4)CC3)C2=O)cc1 (stereo not drawn),active: 44.7 µM,
CCS(=O)(=O)c1ncc(N(Cc2ccco2)Cc2ccccc2F)c(C(=O)Nc2cccc(Cl)c2)n1,,inactive: -3.54%
OC1(c2cccs2)CN(c2ccccc2)C2=[N+]1CCCC2 (stereo not drawn),,inactive: -47% [at 102 µM]
O=C(CSc1ncc(-c2ccc(F)cc2)[nH]1)N1CCCCC1,active: 44.7 µM,
COc1cccc(NC(=O)CN(C)CC(=O)Nc2ccc(C)c([N+](=O)[O-])c2)c1,"inconclusive: 79.4 µM [inhibitor, single point]",
Cc1ccc(C)c(/C=N/n2cc(-c3ccccc3)[nH]c2=S)c1,active: 3.98 µM,
COc1ccccc1/C=C/C=N/n1c(-c2cc(C)[nH]n2)n[nH]c1=S,active: 1.58 µM,
CC(=O)Nc1nc(-c2ccc([N+](=O)[O-])cc2)cs1,,inactive: 2.3% [at 102 µM]
O=C(NCc1ccccc1)C1CCCN1S(=O)(=O)c1cccc2cccnc12 (stereo not drawn),"inconclusive: 89.1 µM [inhibitor, single point]",
Cc1ccc(NS(=O)(=O)c2cc([N+](=O)[O-])ccc2N/N=C/c2sc(N3CCOCC3)nc2-c2ccccc2)c(C)c1,"inconclusive: 79.4 µM [inhibitor, partial curve, poor fit]",
O=C(O)CC(O)(CC(=O)O)C(=O)O,,inactive: -3.31% [at 2.33 µM]
CN(CC(=O)Nc1ccc(Cl)c(C(F)(F)F)c1)C(=O)Cc1n[nH]c(=O)c2ccccc12,"inconclusive: 89.1 µM [inhibitor, partial curve, poor fit]",
CCC(=Nc1ccccc1)C1=C(O)CCCC1=O,"inconclusive: 44.7 µM [inhibitor, partial curve]",
COc1ccc(NC(=O)c2ccc(NC(=O)c3nc4nc(C)cc(C)n4n3)cc2)cc1,active: 35.5 µM,
Cc1ccc(C2C(C(N)=S)=C(N)OC3=C2C(=O)CC(C)(C)C3)cc1 (stereo not drawn),"inconclusive: 0.794 µM [inhibitor, full curve, poor fit]",
